Source: PubChem BioAssay (Tox21)
The shares of active, inactive and inconclusive entries below differ from those in the screen. For part of these data: A potency beside an inconclusive call is a rough fit, not a confirmed value. Activity calls are given as the source filed them. Unless noted, the call rests on the fitted dose curve; in most records, active means well fitted curve in the direction sought with a large enough effect in the repeat runs; inconclusive means weak or mixed curves; inactive means no such curve, though single readings can be large; an effect the other way counts as inactive or inconclusive.

How the values were obtained:
[1] = qHTS assay for small molecule agonists of the p53 signaling pathway (AID 651631; calls by dose curve; further: on the % scale 0 is the no-effect control and ±100 the full control effect; nearly all actives have a fitted effect of over 15% in size); conditions: HCT-116 p53RE-bla reporter, beta-lactamase FRET ratio, 16 h; activation: at 73.3 µM (top of the series) unless noted
Summary of the method: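 Readout was fluorescence from the LiveBLAzer FRET substrate, applied for 2 h at room temperature after 16 h compound exposure at 37 °C. Cells were the p53RE-bla HCT-116 line, with beta-lactamase driven by p53 response elements.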

[2] = qHTS assay for identifying genotoxic compounds that show differential cytotoxicity against isogenic chicken DT40 cell lines with known DNA damage response pathways - Rad54/Ku70 mutant cell line (AID 743015); conditions: DT40 Rad54/Ku70 mutant viability, CellTiter-Glo, 40 h; activity change, negative = cytotoxicity: at 66.8 µM (top of the series) unless noted; further: on the % scale 0 is the no-effect control and ±100 the full control effect; nearly all actives have a fitted effect of over 60% in size
[3] = qHTS assay for small molecule agonists of the antioxidant response element (ARE) signaling pathway (AID 743202; active means well fitted activation curve with a large enough effect in the signal ratio in the repeat runs, not every such curve was filed as active; inconclusive means weak or mixed curves, or effect the other way; inactive means no such curve, though single readings can be large or run the other way; the % refers to the signal ratio; further: on the % scale 0 is the no-effect control and ±100 the full control effect); conditions: HepG2 ARE-bla reporter, beta-lactamase FRET, 16 h; activation: at 73.3 µM (top of the series) unless noted
Summary of the method: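 Quantitative high-throughput format in HepG2 cells bearing an integrated ARE-beta-lactamase reporter. Compound exposure lasted 16 h at 37 C, and fluorescence was read 2 h after adding LiveBLAzer B/G substrate at room temperature.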

[4] = target: Bile acid receptor (Homo sapiens) (UniProt Q96RI1); assay: qHTS assay to identify small molecule antagonists of the farnesoid-X-receptor (FXR) signaling pathway (AID 743217; active means well fitted inhibition curve with a large enough effect in the signal ratio in the repeat runs, not every such curve was filed as active; inconclusive means weak or mixed curves, or effect the other way; inactive means no such curve, though single readings can be large or run the other way; the % refers to the signal ratio; further: on the % scale 0 is the no-effect control and ±100 the full control effect); conditions: HEK293T FXR-UAS-bla, beta-lactamase ratio, CDCA-stimulated, 16 h; activity change, negative = inhibition: at 62.6 µM (top of the series) unless noted
Sequence of UniProt Q96RI1 (Q96RI1 whole entry, looked up): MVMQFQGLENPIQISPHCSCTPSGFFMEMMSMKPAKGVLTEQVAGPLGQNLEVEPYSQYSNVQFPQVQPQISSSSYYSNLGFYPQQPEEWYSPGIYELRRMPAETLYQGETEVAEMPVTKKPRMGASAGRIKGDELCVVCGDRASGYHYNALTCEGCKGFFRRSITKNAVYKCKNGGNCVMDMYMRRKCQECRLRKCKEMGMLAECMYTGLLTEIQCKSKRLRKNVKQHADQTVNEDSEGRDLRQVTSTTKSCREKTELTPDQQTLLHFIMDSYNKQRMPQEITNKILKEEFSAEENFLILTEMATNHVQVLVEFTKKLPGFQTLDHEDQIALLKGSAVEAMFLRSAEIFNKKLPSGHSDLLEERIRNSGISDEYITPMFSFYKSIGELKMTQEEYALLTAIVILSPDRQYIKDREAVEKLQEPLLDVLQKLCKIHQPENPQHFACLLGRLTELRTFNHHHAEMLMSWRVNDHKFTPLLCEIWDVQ
Summary of the method: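 FXR-UAS-bla HEK 293T cells pre-incubated 5 h at 37 °C, then exposed to compounds with chenodeoxycholic acid (50 uM final) for 16 h at 37 °C. Beta-lactamase reporter read by LiveBLAzer B/G FRET substrate fluorescence after 2 h at room temperature.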

[5] = target: Vitamin D3 receptor (Homo sapiens) (UniProt P11473); assay: qHTS assay to identify small molecule antagonists of the vitamin D receptor (VDR) signaling pathway (AID 743223; active means well fitted inhibition curve with a large enough effect in the signal ratio in the repeat runs, not every such curve was filed as active; inconclusive means weak or mixed curves, or effect the other way; inactive means no such curve, though single readings can be large or run the other way; the % refers to the signal ratio; further: on the % scale 0 is the no-effect control and ±100 the full control effect); conditions: VDR-UAS-bla HEK293T, beta-lactamase FRET ratio, 16 h; activity change, negative = inhibition: at 61 µM (top of the series) unless noted
Sequence of UniProt P11473 (P11473 whole entry, looked up): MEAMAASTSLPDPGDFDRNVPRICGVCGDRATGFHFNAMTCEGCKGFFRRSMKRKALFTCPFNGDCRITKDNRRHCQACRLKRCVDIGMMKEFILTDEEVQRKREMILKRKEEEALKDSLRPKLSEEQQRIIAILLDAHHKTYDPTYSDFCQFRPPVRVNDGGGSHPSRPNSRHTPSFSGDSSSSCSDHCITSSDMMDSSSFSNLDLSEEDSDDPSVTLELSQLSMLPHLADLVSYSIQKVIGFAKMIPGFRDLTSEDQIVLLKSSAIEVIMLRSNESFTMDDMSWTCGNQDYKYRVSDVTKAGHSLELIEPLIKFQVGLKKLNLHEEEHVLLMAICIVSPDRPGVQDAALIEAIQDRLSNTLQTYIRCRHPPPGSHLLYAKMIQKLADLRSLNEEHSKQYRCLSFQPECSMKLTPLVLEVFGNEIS
Summary of the method: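 Antagonist mode: compound added to VDR-bla cells alongside agonist 1alpha,25-dihydroxyvitamin D3 (3 nM final), incubation 16 h at 37C. Read-out is LiveBLAzer FRET fluorescence, 2 h at room temperature.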

[6] = qHTS assay to identify small molecule antagonists of the estrogen related receptor (ERR) signaling pathway from Tox21 library - cell viability counter screen (AID 1224834); further: on the % scale 0 is the no-effect control and ±100 the full control effect; nearly all actives have a fitted effect of over 30% in size
Summary of the method: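 ERR reporter cells were plated 6 h before compound addition, then exposed to test compounds in DMSO for 17.5 h at 37 C. Viability was read as CellTiter-Fluor fluorescence after a 30-minute incubation at 37 C.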

[7] = qHTS assay to identify small molecule agonists of the hypoxia (HIF-1) signaling pathway - cell viability counter screen (AID 1224844; calls by dose curve; further: on the % scale 0 is the no-effect control and ±100 the full control effect; nearly all actives have a fitted effect of over 50% in size)
Summary of the method: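 HRE-bla ME-180 cells in medium with 0.5% dialyzed FBS were preincubated 5 hrs at 37C, exposed to compounds for 17 hrs, then viability was read as CellTiter-Glo luminescence after 30 min at room temperature, in the reporter wells.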

[8] = qHTS assay to identify small molecule agonists of H2AX (AID 1224845; active means well fitted activation curve with a large enough effect in the signal ratio in the repeat runs, not every such curve was filed as active; inconclusive means weak or mixed curves; the % refers to the signal ratio; further: on the % scale 0 is the no-effect control and ±100 the full control effect); conditions: CHO-K1 phospho-H2AX Ser139 HTRF, 3 h; activation (H2AX phosphorylation): at 154 µM (top of the series) unless noted
Summary of the method: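 Phospho-H2AX Ser139 measured by HTRF (ex 320 nm; em 665 and 620 nm) after 24 hr antibody incubation. Compounds, 15 concentrations, 0.76% DMSO, were applied to CHO-K1 cells for 3hr at 37C before lysis.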

[9] = A CellTox Green Cytotoxicity Assay to monitor cytotoxicity in HepG2 cells - 16 hour (AID 1224876); further: on the % scale 0 is the no-effect control and ±100 the full control effect; nearly all actives have a fitted effect of over 45% in size
Summary of the method: (§1)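 HepG2 cells were seeded together with the CellTox Green dye at 600 cells/well, left 5 h at 37 C/5% CO2, then given compounds in DMSO. Fluorescence from dye bound to dead-cell DNA was read repeatedly over 40 h of treatment at 37 C.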

[10] = A CellTox Green Cytotoxicity Assay to monitor cytotoxicity in HepG2 cells - 32 hour (AID 1224883); further: on the % scale 0 is the no-effect control and ±100 the full control effect; nearly all actives have a fitted effect of over 50% in size
Summary of the method: as §1

[11] = target: Estrogen receptor beta (Homo sapiens) (UniProt Q92731); assay: qHTS assay to identify small molecule agonists of the estrogen receptor beta (ER-beta) signaling pathway (AID 1259377; active means well fitted activation curve with a large enough effect in the signal ratio in the repeat runs, not every such curve was filed as active; inconclusive means weak or mixed curves, or effect the other way; the % refers to the signal ratio; further: on the % scale 0 is the no-effect control and ±100 the full control effect); conditions: ER-beta-UAS-bla HEK293T, beta-lactamase FRET ratio, 16 h; activation: at 92.4 µM (top of the series) unless noted
Sequence of UniProt Q92731 (Q92731 whole entry, looked up): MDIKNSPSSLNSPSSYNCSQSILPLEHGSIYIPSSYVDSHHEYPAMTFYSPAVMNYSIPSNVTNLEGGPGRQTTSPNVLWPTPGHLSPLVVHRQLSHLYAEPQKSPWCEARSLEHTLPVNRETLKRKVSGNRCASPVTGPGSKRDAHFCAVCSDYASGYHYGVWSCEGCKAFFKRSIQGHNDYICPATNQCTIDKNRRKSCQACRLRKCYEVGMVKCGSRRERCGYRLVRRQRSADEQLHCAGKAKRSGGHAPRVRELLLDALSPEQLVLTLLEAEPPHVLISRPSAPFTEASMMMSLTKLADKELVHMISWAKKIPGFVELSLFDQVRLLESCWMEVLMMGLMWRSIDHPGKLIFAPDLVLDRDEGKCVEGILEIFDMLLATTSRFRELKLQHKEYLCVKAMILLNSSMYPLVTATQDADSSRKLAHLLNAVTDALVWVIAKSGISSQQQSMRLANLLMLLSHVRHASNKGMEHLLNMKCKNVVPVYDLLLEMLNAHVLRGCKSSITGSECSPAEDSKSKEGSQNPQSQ
Summary of the method: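 Ratiometric beta-lactamase FRET read-out came after 2 h substrate loading at room temperature. It followed 16 h compound treatment at 37C of GripTite HEK293T cells carrying a UAS-bla reporter, plated in 2% charcoal-stripped FBS medium.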

[12] = qHTS assay to identify small molecule antagonists of the progesterone receptor (PR) signaling pathway - cell viability counter screen (AID 1346798); further: potency means the concentration at half of the fitted maximal effect; nearly all actives have a fitted effect of over 50% in size
Summary of the method: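 Cytotoxicity read as CellTiter-Glo luminescence (30 min, room temperature) in the same wells as the beta-lactamase readout. HEK293T PR-UAS-bla cells in charcoal-stripped 2% FBS received compound and R5020, then 16 h at 37C, 5% CO2.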

[13] = Human pregnane X receptor (PXR) small molecule agonists, qHTS cell viability counter screen (AID 1346977); further: on the % scale 0 is the no-effect control and ±100 the full control effect; nearly all actives have a fitted effect of over 50% in size
Summary of the method: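 Same-well viability read: CellTiter-Fluor added after 23 hr compound exposure, fluorescence measured 1 hr later. Cells were PXR-Luc HepG2 seeded at 2,000/well in 5% charcoal-stripped FBS medium, rested 5 hr before dosing at 37 C.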

[14] = target: Cytochrome P450 2C19 (Homo sapiens) (UniProt P33261); assay: Cytochrome P450 Family 2 Subfamily C Member 19 (CYP2C19) small molecule antagonists: luciferase reporter qHTS assay (AID 1671197); further: potency means the concentration at half of the fitted maximal effect; nearly all actives have a fitted effect of over 65% in size
Sequence of UniProt P33261 (P33261 whole entry, looked up): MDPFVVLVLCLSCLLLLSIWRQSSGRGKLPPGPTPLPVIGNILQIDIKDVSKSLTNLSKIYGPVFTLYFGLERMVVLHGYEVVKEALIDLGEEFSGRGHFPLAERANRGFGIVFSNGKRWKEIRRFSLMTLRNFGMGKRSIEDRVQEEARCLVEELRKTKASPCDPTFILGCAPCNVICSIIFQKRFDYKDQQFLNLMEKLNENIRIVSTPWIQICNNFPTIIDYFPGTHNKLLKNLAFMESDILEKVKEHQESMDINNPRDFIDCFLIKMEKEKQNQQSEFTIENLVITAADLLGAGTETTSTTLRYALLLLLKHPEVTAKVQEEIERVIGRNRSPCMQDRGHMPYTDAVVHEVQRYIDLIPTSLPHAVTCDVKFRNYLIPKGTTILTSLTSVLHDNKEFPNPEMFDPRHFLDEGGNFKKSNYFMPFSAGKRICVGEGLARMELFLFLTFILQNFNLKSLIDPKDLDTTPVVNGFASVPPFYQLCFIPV
Summary of the method: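 Quantitative high-throughput screen of the Tox21 library using CYP2C19 with proluciferin substrate. Reaction: NADPH regeneration, 37C, 1 h, after 10 min compound preincubation at room temperature. Readout: luminescence.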

[15] = target: Cytochrome P450 1A2 (Homo sapiens) (UniProt P05177); assay: Cytochrome P450 Family 1 Subfamily A Member 2 (CYP1A2) small molecule antagonists: luciferase reporter qHTS assay (AID 1671199)
Sequence of UniProt P05177 (P05177 whole entry, looked up): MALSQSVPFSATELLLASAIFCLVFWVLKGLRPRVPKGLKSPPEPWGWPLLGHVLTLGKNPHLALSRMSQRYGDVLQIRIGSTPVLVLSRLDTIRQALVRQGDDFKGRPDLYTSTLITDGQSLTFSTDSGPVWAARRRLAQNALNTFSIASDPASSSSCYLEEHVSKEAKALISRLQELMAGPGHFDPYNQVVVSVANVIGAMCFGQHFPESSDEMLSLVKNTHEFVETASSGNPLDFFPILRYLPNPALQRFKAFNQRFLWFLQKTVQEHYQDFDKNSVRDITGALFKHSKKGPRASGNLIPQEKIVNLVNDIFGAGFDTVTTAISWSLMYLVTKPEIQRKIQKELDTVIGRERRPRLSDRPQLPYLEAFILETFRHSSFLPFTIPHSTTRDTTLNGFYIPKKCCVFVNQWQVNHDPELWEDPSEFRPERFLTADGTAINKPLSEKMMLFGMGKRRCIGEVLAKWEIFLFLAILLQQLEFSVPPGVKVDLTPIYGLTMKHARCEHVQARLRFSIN
Summary of the method: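 Human CYP1A2 activity measured with a P450-Glo proluciferin substrate; compounds in DMSO preincubated 10 min at room temperature with enzyme-substrate mix, then NADPH regeneration system added for 1 h. Luciferin detection reagent, 20 min, luminescence read.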
Tags describe the fitted curve by direction and shape.

CCOC(=O)CCc1ccccc1
inactive: Potency [1] | Potency [2] | Potency [3] | Potency [5] | Potency [6] | Potency [7] | Potency [8] | Potency [9] | Potency [10] | Potency [11] | Potency [13]
inconclusive: activity change, negative = inhibition [4] -6.13% | Potency [12] 1.37 µM [cytotoxic, single point] | Potency [14] 79.6 µM [inhibitor, single point] | Potency [15] 63.3 µM [inhibitor, partial curve, poor fit]
